In all, about 7,900 compounds went through this assay and about 400 (5.1%) showed an effect of 50% or more. The list shows a part of the results.
molecular target: Parkinson's disease protein 7 (PARK7/DJ1) (human, UniProt Q99497); assay: primary screen, percent inhibition; read as competition with a fluorescent probe by fluorescence polarization; higher = more effect of the substance; conditions: 100 µM
Procedure: The screen was conducted using the conditions as described above in 1536-well plates (Corning 3724) with a reaction volume of 8 μL per well. The compound library containing 7887 covalent fragments was purchased at Enamine Ltd. and received as 100 mM DMSO stocks in 384 well LDV Echo plates (Labcyte LP-0200). Stock solutions of 0.26 μM PARK7 and 80 nM JYQ-107 were prepared. Using a Labcyte Echo550 acoustic dispenser, 8 nL of the DMSO stock solution of the library compounds was transferred from the source plates into the empty 1536-well screening plates to obtain a 100 μM final compound concentration. Next, PARK7 (6 μL, final concentration 0.2 μM) was dispensed using a Biotek MultiflowFX liquid dispenser and incubated for 2 h, followed by dispensing the probe JYQ-107 (2 μL, final concentration 20 nM). After 2 h incubation, the FP signal was recorded on a BMG Labtech PHERAstar plate reader (λex/em 480/520 nm). The relative loss of FP signal compared with reference controls was used to calculate the remaining enzyme activity.

Parkinson's disease protein 7 (PARK7/DJ1), sequence (Q99497 whole entry, looked up, the tested form may be a part): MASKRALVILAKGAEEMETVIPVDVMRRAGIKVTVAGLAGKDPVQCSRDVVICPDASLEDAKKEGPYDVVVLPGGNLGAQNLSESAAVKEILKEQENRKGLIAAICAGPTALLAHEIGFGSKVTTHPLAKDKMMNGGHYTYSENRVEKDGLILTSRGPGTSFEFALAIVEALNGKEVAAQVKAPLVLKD

Compound	Inhibition %
Cc1ccc(S(=O)(=O)n2ccnc2C)cc1	3.4%
CN(C)C1(CNC(=O)CCl)CCCCC1.Cl	3.04%
CC(C)N(C(=O)Cn1cnc(C#N)n1)c1ccccc1	8.33%
Cc1ccc(C(=O)O)cc1S(=O)(=O)F	99.4%
O=C(CCl)N1CCC(c2nc3ccccc3o2)CC1	20.5%
O=C(c1ccccc1)N1CCCC(S(=O)(=O)F)C1 (stereo not drawn)	32.4%
C=CC(=O)N1CCN(S(=O)(=O)N(C)C2CCCCC2)CC1	5.64%
COc1ccc(S(=O)(=O)n2ccnc2C)c(C)c1C	1.84%
N#Cc1nccc2ccccc12	5.57%
COCC(C)n1c(S)nc2ccccc2c1=O (stereo not drawn)	10.1%
C=CC(=O)NC1(c2ncon2)CCOCC1	0.948%
Cc1cc(S(N)(=O)=O)cc(NC(=O)CCl)c1C	2.37%
CN(C)C(=O)c1cccc(CN2C(=O)CSC2=O)c1	29.9%
CC1(C)OB(c2ccc3c(c2)CC(=O)N3)OC1(C)C	5.99%
C=CC(=O)N1CCC(F)(c2ccccc2)C1 (stereo not drawn)	8.62%
Cc1cc(C)c(C(=O)Cn2cnc(C#N)n2)c(C)c1	10%
CC(C)C(CNC(=O)CCl)c1ccccc1 (stereo not drawn)	33%
COc1ccc(S(=O)(=O)N(C)C)cc1NC(=O)CCl	20.4%
Cc1ccc(NC(=O)CCl)cc1I	81.5%
C=CC(=O)NC1(C#N)CCOC1 (stereo not drawn)	2.26%
Cc1nc(C2(NC(=O)CCl)CCCCCC2)no1	-2.32%
O=C(Nc1cccc(-c2noc(=O)[nH]2)c1)C1CC1	10.1%
C=CC(=O)N1CCC(c2ncc(C)s2)CC1	1.87%
C=CC(=O)N1CCCN(C(=O)c2ccco2)CC1	1.97%
C=CC(=O)NC1CCOc2ccccc21 (stereo not drawn)	4.4%

Compound	Inhibition %
CC1(C)OB(c2cc(-c3ccccc3)co2)OC1(C)C	85.9%
Cc1cc(S)nc(C(C)C)n1	32.8%
C=CC(=O)N1CCc2ccccc2C1	11.5%
CC(C)n1nccc1NC(=O)CCl	15.5%
C=CC(=O)NC1CC2CCCCN2C1=O (stereo not drawn)	6.4%
Cc1ccc(C=CS(=O)(=O)NC2(CN)CCCC2)cc1.Cl	3.12%
CC1(C)OB(c2ccc(CN)cc2)OC1(C)C.Cl	4.13%
N#Cc1coc(C2CC2)n1	10.5%
CS(=O)(=O)c1cccc(NC(=O)CCl)c1	7.34%
C=CCNC(=O)C(C#N)=Cc1cccc(C(F)(F)F)c1	9.69%
C=CC(=O)N(C)C1CCN(c2ncnc3ccccc23)CC1	16.8%
Cc1nc(C2CCCCN2C(=O)c2cc(S(=O)(=O)F)c[nH]2)n[nH]1 (stereo not drawn)	5.24%
N#Cc1c(NC(=O)CCl)sc2c1CCC2	9.04%
CS(=O)(=O)c1ccc(OCCCl)cc1	4.09%
CN(C)C(=O)CNS(=O)(=O)C=Cc1ccc(Cl)cc1	-1.97%
CCc1oc2ccccc2c1C=CC(=O)N1CCC(N)C1 (stereo not drawn)	5.91%
O=C(C=Cc1c(Cl)nc2sccn12)N1CCCCC1	5.55%
O=C(CS)Nc1ccccc1	50.4%
CC1(C)OB(C2(N)CCC2)OC1(C)C.Cl	8.29%
Fc1cc(F)c2c(c1)CCN2CCC1OCCO1	18.8%
C=CC(=O)NC1CCOC2(CCSCC2)C1 (stereo not drawn)	3.91%
C=CC(=O)N1CCC2(CCOCC2)C1C (stereo not drawn)	8.76%
C=CC(=O)NCC1(c2ccc(Cl)cc2)CC1	2.93%
Cl.O=C1CC2(CNC2)N1Cc1ccccc1	7.88%
Cc1ccc(C)c(B2OC(C)(C)C(C)(C)O2)c1	6.88%

Compound	Inhibition %
C=CC(=O)Nc1ccc(OCC)c(CO)c1	4.38%
CC(C)(C#N)CC(=O)N1CCC(C2NC(=O)C2(C)C)CC1 (stereo not drawn)	7.05%
NC(=O)C1(NS(=O)(=O)C=Cc2ccccc2)CCCC1	8.21%
O=C(CCl)c1ccc(O)cc1O	81.9%
Cc1sc(NC(=O)CCl)c(C#N)c1C	9.37%
Cc1nn(C)c(C)c1C=CC(=O)N1CC(C)CC(C)C1 (stereo not drawn)	8.17%
CC1(C)OB(Cc2ccc(F)cc2)OC1(C)C	1.29%
CC1CN(c2ccc(NC(=O)CCl)cc2)CC(C)O1 (stereo not drawn)	3.61%
CC1(C)OB(c2c(Cl)cccc2Cl)OC1(C)C	1.49%
Cc1cc(B(O)O)ccc1OCc1cccc(Cl)c1	4.79%
CC(C)c1ccc(CN2CCN(C(=O)CCl)CC2)cc1.Cl	2.76%
C=CC(=O)N1CCN(c2ccccc2)CC1	7.23%
C=CC(=O)N1CCCC(c2nnc(C)o2)C1 (stereo not drawn)	-0.0503%
C=CC(=O)N1C[C@H](OC)C[C@H]1c1nc(C2CC2)n[nH]1	8.48%
CN(Cc1cc(Cl)cc(Cl)c1)C(=O)CCl	32.4%
CC1CC(N2CCC(N3CCN(C)C3=O)CC2)C(=O)O1 (stereo not drawn)	5.28%
C=CC(=O)NCC1COC(=O)N1 (stereo not drawn)	13.5%
Cc1cc(N(CCC#N)C(=O)CCl)ccc1Cl	16.2%
C=CC(=O)N1CCN(Cc2nc(C)c(C)o2)CC1	0.857%
C=CC(=O)N1C[C@]2(C)CC[C@@H](C2)C1(C)C	15%
N#CC(=Cc1ccncc1)C(=O)Nc1ccccc1Cl	8.38%
N#CC=C([O-])C1CCCO1.[Na+] (stereo not drawn)	16.6%
C=CC(=O)NCC1(C)CCC(OC)CC1 (stereo not drawn)	8.04%
C=CC(=O)N1CCCC(c2nc(-c3ccccc3)n[nH]2)C1 (stereo not drawn)	1.87%
O=C1OCCC1Sc1nnc2n1CCCCC2 (stereo not drawn)	-2.49%

Compound	Inhibition %
C=CC(=O)NC1CC(OCC)C12CCC2 (stereo not drawn)	7.24%
CNC(=O)Cn1cc(NC(=O)CCl)cn1	20%
Cc1cc(NS(=O)(=O)C=Cc2ccccc2)n(C)n1	15.4%
N#Cc1nc(-c2ccc(Cl)c(Cl)c2)oc1N	5.93%
CCc1cccc([B-](OC(C)C)(OC(C)C)OC(C)C)n1.[Li+]	10.5%
C=CC(=O)NC1CCc2c(OC)cccc21 (stereo not drawn)	4.88%
N#Cc1nn(CC(=O)N2CCCCCC2)c2ccccc12	2.91%
N#Cc1ncccc1Cl	0.27%
CN(C(=O)C(C#N)=Cc1ccco1)c1ccc(F)cc1	8.11%
N#CC(=Cc1c[nH]c2ccccc12)C(=O)N1CCCC1	7.42%
O=C1OCCC1Sc1nnc(-c2ccccc2F)o1 (stereo not drawn)	1.18%
Cl.NCc1cccc(N2CCC2=O)c1	4.34%
CC(C)(C)C1CC=C(B2OC(C)(C)C(C)(C)O2)CC1 (stereo not drawn)	2.59%
C=CC(=O)N1CCCN(C(=O)CC)CC1	-4.88%
O=C1OCC[C@@H]1NS(=O)(=O)c1cnc2ccsc2c1	8.91%
CCCC(C#N)NS(=O)(=O)c1cccc(S(=O)(=O)F)c1 (stereo not drawn)	96.8%
C=CC(=O)N(Cc1cccc(-c2cccnc2)c1)C1CC1	12.4%
Cc1ccc(NC(=O)CN2CCSC2=O)c(C)c1	2.95%
CN(C)c1ccc(CNC(=O)n2ccnc2)cc1	97%
C=CC(=O)N1CCC(S(=O)(=O)N2CCCC2)CC1	3.5%
N#Cc1cc(N2CC(O)C2)c2ccccc2n1	9.88%
C=CC(=O)NCc1ccc2cnn(C)c2c1	2.83%
C=CC(=O)NC1CC2CCCC(C1)N2C1CC1 (stereo not drawn)	7.52%
CC1CN(C(=O)CCl)CC(C)(C)O1 (stereo not drawn)	22.7%
O=S(=O)(F)c1ccc(S(=O)(=O)Nc2ccncc2F)cc1	17.6%

Compound	Inhibition %
C=CC(=O)NC[C@]1(C)CC[C@H](C)C1(C)C	3.54%
C=CC(=O)N1C[C@@]2(C)CS(=O)(=O)C[C@@]2(C)C1	5.67%
OB(O)c1ccc(OCCCN2CCCCC2)cc1	6.33%
C=CC(=O)N1CC2(CCCCC2)C1	6.22%
Cc1ccc(C=CS(=O)(=O)Nc2ccc(C#N)cn2)cc1	11.1%
CN1CCCC1CCl.Cl (stereo not drawn)	4.93%
O=C(N1CCc2[nH]c3ccccc3c2C1)n1ccnc1	52.4%
CC(=O)Nc1ccc(C=C(C#N)C(=O)N2CCCC2)cc1	14.9%
C=CC(=O)N1CCC(c2cc(C)ccn2)C1 (stereo not drawn)	13.9%
C=CC(=O)NCc1ccno1	4.01%
COC1(C)CC(NC(=O)C(C#N)=Cc2ccco2)C1(C)C (stereo not drawn)	11.4%
O=C(Oc1ccccc1)N1CCOCC1	1.63%
C=CC(=O)N1CCCCC1c1nc(-c2ncccn2)no1 (stereo not drawn)	4.26%
COc1ccc(Cl)cc1C(=O)NNC(=O)CCl	29.8%
C=CC(=O)NC(C)C1CCC(F)CC1 (stereo not drawn)	-3.49%
Cc1ccc(Cl)c(OCC2CO2)c1 (stereo not drawn)	7.81%
Cl.Cn1c(CCCl)nc2ccccc21	3.43%
Cc1nc2sccn2c1C#N	12.3%
COC1(OC)CC2(C1)C(=O)NC2C(C)C (stereo not drawn)	-0.768%
C#CC(=O)Nc1ccc(CC(=O)O)cc1	0.397%
N#CCCn1cc(C(=O)CCl)c2ccccc21	25.9%
O=C(CCl)N1CCC(C(=O)N2CCCCC2)CC1	18.3%
CC1(C)C(=O)NC1c1ccncc1 (stereo not drawn)	4.06%
